# Laboratory results reported in PubChem BioAssay AID588342 (National Center for Advancing Translational Sciences (NCATS), 2011).
# Among all 360,000 compounds or so, about 25,000 (6.9%) were called active. Inconclusive means that the source gave no clear call. Such entries were picked first, then a sample of the others. The call rests on the fitted dose curve; in most records, active means well fitted inhibition curve with a large enough effect; inconclusive means small, poorly fitted or top-dose-only effect; inactive means flat fitted curve, though single readings scatter. Potencies beside an inconclusive call are fits to weak or partial responses and may not hold up.
# Molecular target: Luciferin 4-monooxygenase (Photinus pyralis) (UniProt P08659)
# Chain of UniProt P08659 (P08659 whole entry, looked up): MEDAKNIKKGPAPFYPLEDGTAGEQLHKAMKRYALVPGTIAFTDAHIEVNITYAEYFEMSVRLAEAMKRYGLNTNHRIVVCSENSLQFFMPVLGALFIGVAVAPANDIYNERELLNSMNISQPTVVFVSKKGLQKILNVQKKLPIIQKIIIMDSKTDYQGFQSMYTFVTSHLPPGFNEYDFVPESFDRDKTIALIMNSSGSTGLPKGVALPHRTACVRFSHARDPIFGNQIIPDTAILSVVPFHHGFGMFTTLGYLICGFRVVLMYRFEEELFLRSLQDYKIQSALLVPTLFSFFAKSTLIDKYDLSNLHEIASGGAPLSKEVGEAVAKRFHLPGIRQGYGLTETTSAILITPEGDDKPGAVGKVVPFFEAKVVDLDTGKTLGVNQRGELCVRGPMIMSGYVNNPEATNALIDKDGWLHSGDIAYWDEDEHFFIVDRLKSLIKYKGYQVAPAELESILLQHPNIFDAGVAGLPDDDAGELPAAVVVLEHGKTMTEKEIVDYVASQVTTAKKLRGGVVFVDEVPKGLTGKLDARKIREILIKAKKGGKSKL
# Test: qHTS profiling assay for firefly luciferase inhibitor/activator using purifed enzyme and Km concentrations of substrates (counterscreen for miR-21 project); further: nearly all actives have a fitted effect of over 55% in size
# Details: purified FLuc, luminescence inhibition; series mostly up to 57.5 µM
# Procedure, shortened: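 Biochemical qHTS of compounds, final roughly 60 µM downward over six points, against 10 nM purified firefly luciferase using Km concentrations of substrates (10 uM D-luciferin, 10 uM ATP) in Tris acetate pH 7.5 buffer; luminescence output.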
# Potency means the concentration at half of the fitted maximal effect; tags describe the fitted curve by direction and shape.
row,Structure (SMILES),Potency
1,Clc1ccccc1OCc1nn[nH]n1,"inconclusive: 26.9 µM [inhibitor, single point]"
2,CCCC(=O)Nc1ccc2nc(SCC(=O)N3CCCC3)sc2c1,"inconclusive: 37.9 µM [inhibitor, single point]"
3,CN(C)c1ccc(N=Nc2nc3ccccc3n2C)cc1,active: 0.019 µM
4,COc1ccc(-c2nc(C)c(CCNC(=O)c3ccc(F)c(F)c3)s2)cc1,active: 21.3 µM
5,CC(C)NC(=O)[C@@H]1C[C@@]1(C)[C@@H](NC(=O)OCc1ccccc1)c1ccccc1,"inconclusive: 21.3 µM [inhibitor, partial curve, poor fit]"
6,Cc1ccc(Nc2nc3ccccc3s2)cc1,active: 0.849 µM
7,NNC(=O)c1cc(-c2ccccc2)sc1N,"inconclusive: 23.9 µM [inhibitor, single point]"
8,Cc1ccc(NC(=O)C(C)N=C2NS(=O)(=O)c3ccccc32)cc1F (stereo unspecified),"inconclusive: 23.9 µM [inhibitor, single point]"
9,O=C(Cc1ccccc1F)Nc1nc(-c2cccs2)cs1,active: 10.7 µM
10,CCN(CC)S(=O)(=O)c1ccc(C)c(NC(=O)CSc2nc3ccc(C)cc3[nH]2)c1,"inconclusive: 21.3 µM [inhibitor, single point]"
11,CC1(C)CC(=O)C/C(=N/Nc2nc3ccccc3s2)C1,"inconclusive: 37.9 µM [inhibitor, single point]"
12,Fc1ccc(-c2cc(-c3nc(-c4ccccc4)no3)[nH]n2)cc1,"inconclusive: 21.3 µM [inhibitor, partial curve, poor fit]"
13,CCSC(=O)CCCCCCCCCCCO,"inconclusive: 37.9 µM [inhibitor, partial curve, poor fit]"
14,CCCCOc1ccc(C(=O)NCC(=O)N(C)CC(=O)Nc2ccc(N3CCOCC3)cc2)cc1,"inconclusive: 8.49 µM [inhibitor, partial curve, poor fit]"
15,COc1ccc(NC(=O)c2c(C(F)(F)F)nn(C)c2SCc2ccccc2)cc1,"inconclusive: 26.9 µM [inhibitor, partial curve, poor fit]"
16,COc1ccc(C(=O)Nc2cccc(-c3nc4ncccc4o3)c2C)cc1,"inconclusive: 10.7 µM [inhibitor, partial curve]"
17,CCOc1ccc2nc(N3CCC(C(=O)Nc4nnc(CC)s4)CC3)sc2c1,"inconclusive: 21.3 µM [inhibitor, partial curve, poor fit]"
18,CCOc1ccc(N2CC(C)Cn3c2nc2c3c(=O)n(CC(=O)O)c(=O)n2C)cc1 (stereo unspecified),inactive
19,Cc1cccc(/N=C/c2c(O)c3ccccc3oc2=O)n1,active: 5.36 µM
20,COc1ccc2nc(N/C(N)=N/C(=S)Nc3cccc(C)c3)nc(C)c2c1,"inconclusive: 4.78 µM [inhibitor, full curve]"
21,COCCN1Cc2cccc(C(=O)Nc3ccc(C)c(F)c3)c2C1=O,"inconclusive: 16.9 µM [inhibitor, partial curve, poor fit]"
22,NNc1nc(-c2ccccc2)cs1,"inconclusive: 23.9 µM [inhibitor, partial curve]"

row,Structure (SMILES),Potency
1,CCc1sc(C(C2C(=O)CC(C)(C)CC2=O)C2C(=O)CC(C)(C)CC2=O)cc1[N+](=O)[O-],"inconclusive: 23.9 µM [inhibitor, single point]"
2,COc1cccc(NC(=O)C(C)OC(=O)c2n[nH]c3ccccc23)c1 (stereo unspecified),"inconclusive: 26.9 µM [inhibitor, partial curve, poor fit]"
3,CCN(CC)CCCNC(=O)C1CCN(C(=O)c2oc3cc4sc(N(C)C)nc4cc3c2C)CC1,"inconclusive: 30.1 µM [inhibitor, partial curve, poor fit]"
4,Clc1ccc(-c2noc(CN3CCCC3)n2)cc1,active: 19 µM
5,CN(C(=O)CSc1nc2ccc(NC(=O)c3ccccc3F)cc2s1)c1ccccc1,"inconclusive: 10.7 µM [inhibitor, partial curve]"
6,Cc1cc(O)c(NC(=O)c2ccc(Br)o2)cc1C,"inconclusive: 9.53 µM [inhibitor, partial curve]"
7,O=C(/C=C/c1ccc(F)cc1)c1cc(Br)ccc1O,"inconclusive: 33.8 µM [inhibitor, partial curve, poor fit]"
8,CS(=O)(=O)Nc1cccc(-c2cn3ccccc3n2)c1,active: 23.9 µM
9,COc1ccc(C(=O)N/C(=C\c2cn(C)c3ccccc23)C(=O)NCCCn2ccnc2)cc1,inactive
10,O=C(Cn1cc(SCc2ccccc2)c2ccccc21)N1CCCCC1,"inconclusive: 13.5 µM [inhibitor, partial curve, poor fit]"
11,O=c1c2nccnc2[nH]c(=S)n1Cc1ccccc1Cl,"inconclusive: 19 µM [inhibitor, partial curve, poor fit]"
12,Nc1c(N=Nc2ccccc2F)c(=O)[nH]n1-c1ccccc1,active: 3.79 µM
13,O=C(Nc1nc2ccc([N+](=O)[O-])cc2s1)c1ccco1,active: 2.13 µM
14,CCOc1ccc(C(=O)NC(C)C2COc3ccccc3O2)cc1 (stereo unspecified),"inconclusive: 37.9 µM [inhibitor, partial curve, poor fit]"
15,CNC(=O)Nc1ccccc1C(=O)Nc1ccccc1,"inconclusive: 16.9 µM [inhibitor, partial curve]"
16,COc1ccccc1C(=O)Oc1ccccc1C(=O)Nc1ccccc1,"inconclusive: 21.3 µM [inhibitor, partial curve, poor fit]"
17,CSc1ccc(CNC(=O)C2CCN(c3nnc(-n4cccc4CNc4ccc(C)cc4)s3)CC2)cc1,"inconclusive: 19 µM [inhibitor, partial curve]"
18,CC(=O)Nc1ccc(OCc2cccc([N+](=O)[O-])c2)cc1,"inconclusive: 37.9 µM [inhibitor, partial curve, poor fit]"
19,COc1ccc(CC(=O)N2CCC(c3ccccc3)C2)cc1 (stereo unspecified),"inconclusive: 21.3 µM [inhibitor, partial curve]"
20,COCCNC(=S)N1CCN(c2nc(-c3ccc(F)cc3)cs2)CC1,"inconclusive: 21.3 µM [inhibitor, single point]"
21,COc1ccc(OC)c(NC(=O)CCc2c(C)nn(-c3ccc(N4CCCC4)nn3)c2C)c1,"inconclusive: 37.9 µM [inhibitor, partial curve, poor fit]"
22,CC(C)(C)C1CCc2c(sc(NC(=O)C3CCCO3)c2C(N)=O)C1 (stereo unspecified),active: 21.3 µM

row,Structure (SMILES),Potency
1,CC(=O)Nc1cccc(C(=O)NCCc2ccco2)c1,"inconclusive: 37.9 µM [inhibitor, single point]"
2,O=C(Nc1nc2ccc(Cl)cc2s1)c1ccc(Br)o1,active: 2.39 µM
3,Cc1cccc2c(=O)c(-c3ccc4c(c3)OCO4)c(NC(=O)c3ccco3)oc12,"inconclusive: 26.9 µM [inhibitor, partial curve]"
4,CC1CCCN(CC(=O)Nc2ccc(S(=O)(=O)N3CCCC3)cc2)C1 (stereo unspecified),inactive
5,COc1ccc(CNC(=O)C2CCC(CNS(=O)(=O)c3ccccc3)CC2)cc1 (stereo unspecified),inactive
6,CC(C)c1ccc(NC(=O)c2ccc3c(c2)CCCN3S(C)(=O)=O)cc1,"inconclusive: 16.9 µM [inhibitor, partial curve]"
7,Cc1c(CCC(=O)O)c(=O)oc2c(C)c3occ(-c4ccc(Br)cc4)c3cc12,"inconclusive: 30.1 µM [inhibitor, partial curve, poor fit]"
8,Cc1ccc(NC(=O)c2ccc3c(c2)C(=O)N(c2cc(C)ccc2C)C3=O)nc1,"inconclusive: 21.3 µM [inhibitor, single point]"
9,CN(C)CCN(C(=O)CN1C(=O)c2ccccc2C1=O)c1nc2cc3c(cc2s1)OCCO3,"inconclusive: 37.9 µM [inhibitor, partial curve, poor fit]"
10,Cc1c(C(=O)N2CCC(C)CC2)c(S(=O)(=O)NCc2ccc(Br)cc2)c(C)n1C,inactive
11,CC(C)c1ccc(NC(=O)C2CCN(c3nc(-c4ccc(C(C)C)cc4)no3)CC2)cc1,"inconclusive: 21.3 µM [inhibitor, partial curve]"
12,CCCCc1nc2ccccc2n2c(-c3ccc(OC)cc3)c3c(=O)n(C)c(=O)n(C)c3c12,inactive
13,C/C(N)=C(/C#N)C(=O)COC(=O)c1cc(-c2ccc(Br)cc2)nc2ccccc12,"inconclusive: 2.69 µM [inhibitor, full curve]"
14,Cc1ccc(CNC(=O)c2ccc(N(C)C)cc2)cc1,"inconclusive: 37.9 µM [inhibitor, single point]"
15,CSc1ncccc1C(=O)OCC(=O)N(CC(C)C)c1c(N)n(Cc2ccccc2)c(=O)[nH]c1=O,inactive
16,Cc1ccccc1Nc1c(-c2ccc(Cl)s2)nc2c(C)cccn12,"inconclusive: 13.5 µM [inhibitor, partial curve, poor fit]"
17,COc1ccc(-n2ncc(C(=O)N3CCN(c4ncccn4)CC3)c2C2CCN(C(=O)OC(C)(C)C)CC2)cc1,inactive
18,COC(=O)c1cccc(NC(=O)Nc2ccc(Cl)cc2Cl)c1,"inconclusive: 13.5 µM [inhibitor, partial curve]"
19,Cc1nc([N+](=O)[O-])c(C(=O)OCc2ccccc2F)n1C,inactive
20,Cc1cccc(N2CCN(C(=O)c3cc(COc4ccc(F)c(F)c4)on3)CC2)n1,"inconclusive: 37.9 µM [inhibitor, single point]"
21,O=C(O)C/C(=C\c1ccc(N2CCOCC2)c([N+](=O)[O-])c1)c1nc2ccccc2s1,"inconclusive: 26.9 µM [inhibitor, single point]"
22,COc1ccc(C)cc1NC(=O)C1CCN(S(=O)(=O)c2ccc3[nH]c4c(c3c2)CCCCC4)CC1,inactive
